Test results from PubChem BioAssay AID463173 (ICCB-Longwood Screening Facility, Harvard Medical School, 2010).
Among all 52,000 compounds or so, about 1,700 (3.3%) were called active. Cut-off read from the data, not from the text of the source: active = survival mostly below about 52% (no sharp cut-off); inactive = mostly above about 56%. The list shows a part of the results.

tested on: Wild type; test: S. aureus survival, RN4220 and DeltatarO strains – OD600, teichoic acid synthesis inhibitors, primary screen (AID 463173); details: S. aureus RN4220 wild type/DeltatarO growth, OD600, 18 h, hits give low values, screened at 18.75 µg/mL (by protocol)

Compound	survival
O=C(O)c1ccc(CSc2nnc(-c3ccncc3)n2CC2CCCO2)cc1 (stereo unspecified)	inactive: 94%
Cc1c(-c2nsc(NC(=O)c3cccs3)n2)nnn1-c1ccc(Br)cc1	inactive: 90%
Cc1cccc(CN2CCc3nc(N4CCN(c5ccccn5)CC4)ncc3C2)c1	inactive: 79%
Cc1ccc(CNC(=O)CN2C(=O)C3CCCCN3c3ccc(C(=O)N4CCCC4)cc32)cc1 (stereo unspecified)	inactive: 81%
O=C(NCc1ccccc1Cl)c1ccc2c(O)c(S(=O)(=O)c3ccccc3)c(=O)[nH]c2c1	inactive: 91%
COc1ccc(Cl)cc1C(=O)Nc1ccc(-c2nnc3n2CCCCC3)cc1	inactive: 68%
COc1cccc(Cn2c(=O)n(-c3ccccc3C)c(=O)c3c2c2cc(C)ccc2n3C)c1	inactive: 99%
COc1cccc(NC(=O)C2CCN(C(=O)N3CC(C)Oc4ccccc43)CC2)c1 (stereo unspecified)	inactive: 102%
O=C(NCCSc1c(-c2ccc(F)cc2)[nH]c2ccccc12)c1ccc(S(=O)(=O)N2CCOCC2)cc1	inactive: 106%
Cc1ccc(C)c(NC(=O)CN(CCc2ccccc2)S(=O)(=O)c2ccccc2)c1	inactive: 69%
Cc1cccc(Cc2c(C)nc3nc(SCc4ccccc4C)nn3c2C)c1	inactive: 87%
CC(=O)c1ccc(NC(=O)CCc2c(C)nc3cc(-c4ccc(Cl)cc4)nn3c2C)cc1	inactive: 73%
COc1cccc(-n2c(SCc3ccccc3C)nc3c([nH]c4ccccc43)c2=O)c1	inactive: 81%
Cc1ccc(C)c(N2CCN(c3cc(C)nc4c(-c5ccc(Cl)cc5)c(C)nn34)CC2)c1	inactive: 96%
Cc1cc(C)cc(OCC(=O)NCC2(N(C)C)CCCCC2)c1	inactive: 110%
CCc1nn(CC(=O)NC(C)c2ccccc2)c(=O)c2cc3sccc3n12 (stereo unspecified)	inactive: 91%
CCOC(=O)C1=C(CS(=O)(=O)c2ccc(F)cc2)NC(=O)NC1c1ccc(OCC)c(OC)c1 (stereo unspecified)	inactive: 132%
CC(C)CCNC(=O)[C@@H](c1ccccc1)N1Cc2ccccc2C1=O	inactive: 55%
CCOc1ccc(NC(=O)Cn2nnc(C(=O)Nc3ccc(OCC)cc3)c2N)cc1	inactive: 85%

Compound	survival
Cc1cccc(N2C(=O)C3C(C(=O)NC4CC4)C4C=CC3(O4)C2C(=O)NC2CCCC2)c1 (stereo unspecified)	inactive: 106%
Cc1ccc(S(=O)(=O)N2CCC(c3ccncc3)CC2)c(C)c1	inactive: 121%
CCCc1cc(=O)n2[nH]c(NCc3ccccc3OC)nc2n1	inactive: 113%
Cn1c(=O)c2c(n(C)c1=O)=NC1(CCCCC1)ON=2	inactive: 108%
O=C(COc1ccccc1-c1nc(-c2ccccc2)no1)Nc1ccccc1[N+](=O)[O-]	inactive: 55%
CCOC(=O)c1c(C)n(CC)c2cc(Br)c(O)cc12	inactive: 93%
CC(=O)Nc1ccc(C2Nc3c(C)cc(C)cc3-c3cc(C)nn32)cc1 (stereo unspecified)	inactive: 141%
Cc1ccc(S(=O)(=O)NCCSc2nnnn2-c2ccc(Cl)c(C(=O)O)c2)cc1	inactive: 126%
COc1cc(OC)c(NS(=O)(=O)c2ccc3c(c2)NC(=O)CCS3)cc1Cl	inactive: 129%
CCOC(=O)c1ccc(NC(=O)C(Cc2ccccc2)NS(=O)(=O)c2ccc(Br)s2)cc1 (stereo unspecified)	inactive: 97%
Cc1cc(C)cc(Nc2sc(C(=O)c3ccccc3)c(N)c2S(=O)(=O)c2ccccc2)c1	inactive: 78%
CCOC(=O)c1c(C)oc2nc(C)nc(NCc3ccccc3OCC)c12	inactive: 124%
Cc1cc(NNC(=O)c2ccccc2)nc(NNC(=O)c2ccccc2)n1	inactive: 103%
CCOc1ccc(S(=O)(=O)NCc2ccc3c(c2)OCO3)cc1	inactive: 116%
CCCc1nc2ccccc2n2c(-c3cccc(C)c3)c3c(=O)n(C)c(=O)n(C)c3c12	inactive: 75%
O=C(NCc1ccccc1Cl)C1CCCN(c2ncnc3onc(-c4ccc(F)cc4)c23)C1 (stereo unspecified)	inactive: 65%
COC(=O)Cn1c(=O)c2c(nc3n2CCN3c2ccc(F)cc2)n(C)c1=O	inactive: 84%
CSc1nnc(C2CCCN2Cc2cccnc2)n1C (stereo unspecified)	inactive: 104%
CSc1ccc(CNC(=O)c2ccc(NC(=O)c3nsc4ccccc34)cc2)cc1	inactive: 119%

Compound	survival
O=C(NCc1ccccc1Cl)NCc1noc2ccccc12	inactive: 78%
COc1cccc(-n2c(SCC(=O)c3ccc(Cl)cc3)nc3c([nH]c4ccccc43)c2=O)c1	inactive: 45%
Cc1ccc(C(c2nnnn2C2CCCC2)N(Cc2cccnc2)CC2CCCO2)cc1 (stereo unspecified)	inactive: 106%
Cc1ccc(CNS(=O)(=O)c2ccc(-c3cc(C(F)(F)F)on3)s2)cc1	inactive: 75%
Nc1c(C(=O)Nc2ccccc2)nnn1Cc1ccc(F)cc1Cl	inactive: 106%
Cc1ccc(N2C(=O)[C@@H]3CSC(c4ccc(F)cc4)N3C2=O)cc1 (stereo partly specified)	inactive: 79%
CCOc1ccccc1C(=O)Nc1nc2c(s1)CC(C)CC2 (stereo unspecified)	inactive: 86%
COc1ccc(Cl)cc1NC(=O)Cn1c(=O)n(CCC(=O)NCc2ccc3c(c2)OCO3)c(=O)c2ccccc21	inactive: 93%
NC(=S)N/N=C/c1ccccc1OCC(=O)O	inactive: 96%
Cc1ccccc1NC(=O)Cn1c(=O)n(CC2CCC(C(=O)NCCc3ccccc3)CC2)c(=O)c2ccccc21 (stereo unspecified)	inactive: 102%
CCCCn1nc(CC(=O)O)c2ccccc2c1=O	inactive: 101%
COc1cc(NC(=O)COCc2cc(-c3ccc(F)cc3)on2)cc(OC)c1OC	inactive: 76%
O=C(Nc1ccc(Cl)c(-c2nc3cc(Cl)ccc3o2)c1)c1cc([N+](=O)[O-])ccc1N1CCOCC1	inactive: 141%
Cc1ccc(C(=O)Nc2cc3c(cc2N2CCCC2)n(C)c(=O)c(=O)n3C)cc1	inactive: 73%
Cc1nn(C(C)(C)C)c(OC(=O)C(C)(C)C)c1Sc1ccccc1	active: -9%
CC(=O)Nc1ccc(NC(=O)Cn2nc(C(=O)Nc3ccc(C)cc3)ccc2=O)cc1	inactive: 126%
CCOc1ccc(-c2cc3c(=O)n(CC(=O)NCc4ccc(Cl)cc4)ccn3n2)cc1	inactive: 69%
O=C(O)CCn1cnc2onc(-c3cc(F)cc(F)c3)c2c1=O	inactive: 87%
